# Experimental data reported in US20090111786A1, “Compounds that Prevent Macrophage Apoptosis and Uses Thereof” (priority 2004, published 2009).
# System: LPS-dependent gene expression in macrophages
# Assay: Microarray analysis of LPS (TLR4)-induced apoptotic gene program
# Conditions: 1 μM, 16 h, then LPS 100 ng/ml 6 h
# Protocol: Inc., Farmingdale, N.Y.).
# An additional series of microarray experiments was performed to evaluate the influence of LXR activation on regulation of the apoptotic program induced by engagement of TLR4 (FIG. 4). Macrophages were incubated with GW3965 or vehicle for 16 h and then treated with LPS for 6 hours. Of 86 genes with functional annotations linked to apoptosis and expressed in at least one condition, 23 genes were altered more than 1.5-fold by LPS treatment. […] The dominant effect of LXR activation was to counter-regulate a subset of the pro-apoptotic program of gene expression induced by LPS. For example, the LXR agonist attenuated LPS-dependent downregulation of the anti-apoptotic proteins Bcl2, Bag3 and Birc1a. Conversely, LXR activation inhibited LPS-dependent induction of the pro-apoptotic factors Bax, Bak, Bcl211, and caspases 1, 3, 4/11, 7, 8 and 12.
# Macrophages were incubated with the LXR agonist GW3965 (1 μM) or vehicle for 16 h prior to treatment with LPS (100 ng/ml) for 6 h. Total RNA was subjected to microarray analysis using Codelink Mouse Uniset 1 microarrays. Relative expression levels for selected categories of pro-apoptotic and anti-apoptotic genes are illustrated. […] FIG. 4a) Anti-apoptotic members of the Bag and Bcl families. FIG. 4b) Pro-apoptotic members of the Bcl family. FIG. 4c) Members of the anti-apoptotic baculovirus IAP repeat-containing (Birc) family. […]
compound,measurement,value
O=C(O)Cc1cccc(OCCCN(Cc2cccc(C(F)(F)F)c2Cl)CC(c2ccccc2)c2ccccc2)c1 [GW3965],"LPS-dependent downregulation of anti-apoptotic proteins Bcl2, Bag3 and Birc1a",attenuated
same,"LPS-dependent induction of pro-apoptotic factors Bax, Bak, Bcl211, caspases 1, 3, 4/11, 7, 8 and 12",inhibited
